Laboratory results from PubChem BioAssay AID894 (National Center for Advancing Translational Sciences (NCATS), 2007).
Hit rate of the full screen: of about 150,000 compounds, about 6,500 (4.3%) were called active. The shares of active, inactive and inconclusive entries below differ from those in the screen. Calls come from the whole dose curve; as a rule, active = well fitted inhibition curve with a large enough effect (not every such curve was filed as active); inconclusive = small, poorly fitted or top-dose-only effect, or another doubt; inactive = no such curve, though single readings can be large or run the other way. No potency is given beside an inconclusive call; the fits are too rough.

molecular target: 15-hydroxyprostaglandin dehydrogenase [NAD(+)] (Homo sapiens) (UniProt P15428); assay: qHTS Assay for Inhibitors of HPGD (15-Hydroxyprostaglandin Dehydrogenase); conditions: purified HPGD, NADH fluorescence kinetic, PGE2 substrate; activity change, negative = inhibition: hits give low values
How it was run: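 20 nM HPGD preincubated 15 min at room temperature with compound in 50 mM Tris-HCl pH 8, 0.01% Tween 20. Started with 1 mM NAD+ and 30 uM prostaglandin E2; NADH fluorescence (360/450 nm) read 5 times over 30-s intervals, last minus first.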
% is set by controls: 0 for no effect and ±100 for the full control effect; potency is the fitted concentration of half-maximal effect; tags give direction and shape of the fitted curve.

Chain of UniProt P15428 (P15428 whole entry, looked up): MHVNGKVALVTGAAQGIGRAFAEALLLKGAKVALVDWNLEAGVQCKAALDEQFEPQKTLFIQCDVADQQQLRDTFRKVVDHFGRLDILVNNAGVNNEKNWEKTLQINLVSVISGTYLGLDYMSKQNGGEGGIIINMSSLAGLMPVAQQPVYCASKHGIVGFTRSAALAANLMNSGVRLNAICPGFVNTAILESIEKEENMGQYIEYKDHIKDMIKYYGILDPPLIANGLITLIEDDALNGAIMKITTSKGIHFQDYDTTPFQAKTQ

Row | Compound | activity change, negative = inhibition | Potency
1 | Cc1ccc(-n2cc(C(C)(C)C)[nH]c2=S)cc1 | inactive: -20.1% | 
2 | O=C1CCC(=O)N1CCC(c1ccc(F)cc1)c1ccco1 (stereo not drawn) | inactive: -8.53% | 
3 | COc1cccc(/C=N/n2c(N)nc3ccccc32)c1OC |  | inconclusive [inhibitor, single point]
4 | NC(=O)c1ccsc1NC(=O)c1nc(-c2ccccc2)n(-c2ccccc2)n1 |  | inconclusive [inhibitor, single point]
5 | O=C(c1ccc(C(=O)N2CCCCCC2)cc1)N1CCCCCC1 |  | active: 7.94 µM
6 | Fc1cccc(CSc2nc3ncccc3[nH]2)c1 |  | active: 17.8 µM
7 | O=C(CSCc1ccc(Cl)cc1)c1ccco1 |  | active: 22.4 µM
8 | Cc1[nH]c2ccccc2c1C(Nc1nccs1)c1ccncc1 (stereo not drawn) | inactive: -7.83% | 
9 | CC(=O)Nc1ccc(S(=O)(=O)Nc2nccc(/C=C/c3ccc(Cl)cc3)n2)cc1 |  | inconclusive [inhibitor, partial curve]
10 | Cc1cc(N2CCOCC2)nc2ccc(NC(=O)CCC(=O)N3CCCC(C)C3)cc12 (stereo not drawn) |  | inconclusive [inhibitor, partial curve]
11 | CC(C)(C)c1cc(CN(CCO)CCO)cc(C(C)(C)C)c1O |  | active: 25.1 µM
12 | CC1(C)CC(=O)C2=C(C1)N(c1ccc(F)cc1)C(=O)C2(NC(=O)c1ccccc1)C(F)(F)F (stereo not drawn) | inactive: -4.29% | 
13 | Cc1cc(NCc2ccco2)n2c(nc3ccccc32)c1C#N |  | inconclusive [inhibitor, partial curve]
14 | CN1CCN(c2ncnc3ccc(-c4ccccc4C#N)cc23)CC1 |  | inconclusive [inhibitor, partial curve]
15 | COCCCNC(=O)C(C#N)c1nc2ccccc2nc1N1CCCC1 (stereo not drawn) |  | inconclusive [inhibitor, partial curve]
16 | Cc1ccc(S(=O)(=O)NNc2nc3ccccc3nc2C(F)(F)F)cc1 |  | active: 3.16 µM
17 | O=C(Cc1ccc2cccnc2c1)c1ccc(O)cc1O | inactive: -23.6% | 
18 | O=C1CCC[C@@H]2CC(N3CCCCC3)C[C@@H]3CCN1[C@H]23 (stereo partly drawn) | inactive: -1.93% | 
19 | Cc1ccc(S(=O)(=O)NN2C(=O)c3ccccc3NC2C)cc1 (stereo not drawn) |  | inconclusive [inhibitor, partial curve]
20 | O=C(NCC1CCCO1)C1CCC(=O)N1CCc1ccccc1 (stereo not drawn) | inactive: -11.2% | 
21 | O=C(c1ccccc1)C(Sc1ncn[nH]1)c1ccccc1 (stereo not drawn) |  | active: 39.8 µM
22 | CCN(C(=O)CSc1nc2nc(C)cc(C)n2n1)c1cccc(C)c1 |  | active: 25.1 µM
23 | NS(=O)(=O)c1ccc(NC=C2C(=O)OC3(CCCCC3)OC2=O)cc1 |  | active: 35.5 µM
24 | CC(=O)Nc1ccc(NC(=O)CSc2nnc(-c3ccco3)n2Cc2ccco2)cc1 | inactive: -9.74% | 
25 | Cc1ccc(C(=O)Nc2ccccc2C(=O)NCc2ccco2)cc1S(=O)(=O)N1CCCCC1 |  | inconclusive [inhibitor, partial curve]

Row | Compound | activity change, negative = inhibition | Potency
26 | COC(=O)[C@@H]1C[C@@]2(O)[C@@H](O)[C@@H](O)[C@@H](O)C[C@H]2N1Cc1ccc(C(C)(C)C)cc1 | inactive: -11.2% | 
27 | COc1ccc(C2c3ccc4ccccc4c3Oc3ncn4nc(Cc5ccccc5)nc4c32)cc1OC (stereo not drawn) |  | inconclusive [inhibitor, partial curve]
28 | O=S(=O)(c1ccccc1)N1CCC2(CCN(c3cccc(-c4ccccc4)c3)CC2)CC1 |  | inconclusive [inhibitor, partial curve]
29 | CC(=O)N1CCc2cc(C(=O)CN3CCN(c4ccccc4F)CC3)ccc21 |  | inconclusive [inhibitor, partial curve]
30 | CCOC(=O)c1ccc2[nH]c(C)c(CCC(C)=O)c(=O)c2c1 |  | inconclusive [inhibitor, partial curve]
31 | CCOC(=O)c1c(NC(=O)Cn2nnc(-c3ccccc3Cl)n2)sc(C)c1C |  | inconclusive [inhibitor, partial curve]
32 | CC(=O)O[C@]1(C(C)=O)CC[C@H]2C3C=C(Cl)C4=CC(=O)[C@@H]5C[C@H]5[C@]4(C)C3CC[C@@]21C (stereo partly drawn) | inactive: 4.41% | 
33 | Cc1cc(Cl)ccc1NC(=S)NCc1cccs1 |  | inconclusive [inhibitor, single point]
34 | O=C(Oc1ccc2ccccc2c1Cl)N1CCCCCC1 |  | inconclusive [inhibitor, partial curve]
35 | COc1c(Br)cc2c(C)c(C(=O)O)oc2c1Br |  | active: 14.1 µM
36 | CC(=O)Nc1ccc(C(=O)Nc2cc(C(F)(F)F)ccc2-n2cnc3ccccc32)cc1 |  | active: 14.1 µM
37 | CCOC(=O)CNc1ccc2c(c1)OCO2 |  | inconclusive [inhibitor, partial curve]
38 | CCCCNc1nc(CC)c2c(c1C#N)CCCC2 |  | inconclusive [inhibitor, partial curve]
39 | COc1cc([N+](=O)[O-])cc(/C=N/NC(=O)C(C)Nc2ccccc2C)c1O (stereo not drawn) | inactive: -15.9% | 
40 | CCCCC(=O)N1CCN(c2ccc(OC)cc2[N+](=O)[O-])CC1 |  | active: 14.1 µM
41 | O=C(CSc1ncn(-c2ccccc2)n1)Nc1nc2ccccc2s1 |  | active: 22.4 µM
42 | O=C1c2ccccc2NC(c2ccc(-c3cccc([N+](=O)[O-])c3)o2)N1O (stereo not drawn) |  | active: 17.8 µM
43 | CC1(C)CC(=O)c2sc(NC(=O)CN3C(=O)CCC3=O)nc2C1 |  | inconclusive [inhibitor, partial curve]
44 | O=C(Cn1nnc2c(cnn2-c2ccccc2)c1=O)NCc1cccs1 |  | inconclusive [inhibitor, single point]
45 | CCOP(=O)(OCC)C(C#N)=C1SCN(c2ccc(Cl)cc2)CS1 |  | active: 20 µM
46 | CN1CCN(c2nc(-c3cccc(C#N)c3)nc3ccccc23)CC1 | inactive: -6.38% | 
47 | Cc1cccc(Cc2cnc(NC(=O)c3ccc(C)o3)s2)c1 |  | inconclusive [inhibitor, single point]
48 | CC(C)(C)c1cc(CN2CCN(CCO)CC2)cc(C(C)(C)C)c1O |  | inconclusive [inhibitor, partial curve]
49 | C=C(C)C1Cc2nc(N)nc(C)c2C1 (stereo not drawn) |  | inconclusive [inhibitor, single point]
50 | c1csc(-c2cnc3ccccc3n2)c1 |  | inconclusive [inhibitor, partial curve]

Row | Compound | activity change, negative = inhibition | Potency
51 | O=C1CCCCCC1C1(O)C(=O)Nc2ccc(Br)cc21 (stereo not drawn) | inactive: -7.79% | 
52 | C=CCn1c(-c2ccc(OC)cc2)nc2nc3ccccc3nc21 |  | inconclusive [inhibitor, partial curve]
53 | N#CC1=C(S)N=C(N)C(c2nc(-c3ccccc3)cs2)C12CCCC2 (stereo not drawn) |  | inconclusive [inhibitor, partial curve]
54 | N#Cc1c(-c2ccccc2Cl)cc(-c2ccccc2)nc1Br |  | active: 25.1 µM
55 | c1ccc(C2CCC3(CC2)Oc2ccccc2C2CC(c4cccnc4)=NN23)cc1 (stereo not drawn) |  | inconclusive [inhibitor, partial curve]
56 | O=C(Nc1nccs1)c1ccc(CSc2nnnn2-c2ccccc2)cc1 |  | inconclusive [inhibitor, partial curve]
57 | Cc1ccc2c(c1)c(CC(=O)Nc1ccc(F)cc1)c(C(=O)O)n2C |  | inconclusive [inhibitor, partial curve]
58 | CCOC(=O)c1c(NC(=O)c2ccc(N3C(=O)[C@@H]4[C@H](C3=O)[C@H]3C=C[C@@H]4C3)cc2)sc2c1CC(C)CC2 (stereo partly drawn) |  | inconclusive [inhibitor, partial curve]
59 | COc1ccc(NC(=O)N(Cc2cc3cc(OC)ccc3[nH]c2=O)CC2CCCO2)cc1 (stereo not drawn) |  | inconclusive [inhibitor, partial curve]
60 | N[C@@H](C(=O)O)c1ccc(O)c(C(=O)O)c1 |  | inconclusive [inhibitor, partial curve]
61 | Cc1ccc2nc(-c3ccncc3)c(Nc3ccccc3)n2c1 |  | inconclusive [inhibitor, partial curve, poor fit]
62 | COCCCn1c(-c2ccc(OC)cc2)nc2nc3ccccc3nc21 |  | inconclusive [inhibitor, partial curve]
63 | CC(C)=CCc1c(O)cc2occ(-c3ccc4c(c3)OCO4)c(=O)c2c1O |  | active: 25.1 µM
64 | CCCCC1CCC(C(=O)N2CCOCC2)CC1 (stereo not drawn) |  | active: 15.8 µM
65 | COC(=O)c1cc([N+](=O)[O-])c(-n2ccnc2)c([N+](=O)[O-])c1 | inactive: -6.09% | 
66 | CC1CCN(c2c(NCc3ccc(C(=O)NCc4cccnc4)cc3)c(=O)c2=O)CC1 |  | inconclusive [inhibitor, partial curve]
67 | O=c1cc(-c2cc3ccccc3oc2=O)c2ccc(O)cc2o1 |  | inconclusive [inhibitor, partial curve]
68 | Cc1ccccc1NC(=O)c1ccc(-c2ccc(Cl)cc2Cl)o1 |  | inconclusive [inhibitor, partial curve]
69 | O=Cc1cccc(Br)c1 | inactive: -8.07% | 
70 | O=C1CN(C(=O)COC(=O)CCSc2ccccc2Cl)c2ccccc2N1 |  | active: 17.8 µM
71 | COc1ccc(NC(=O)c2sc(=S)[nH]c2N)cc1 |  | active: 28.2 µM
72 | COCc1cc(C)nc(N2CCNCC2)c1C#N |  | inconclusive [inhibitor, partial curve]
73 | Cc1ccc(NC(=O)NC(=O)N(C(C)C)S(C)(=O)=O)nc1 |  | inconclusive [inhibitor, partial curve]
